Results from patent EP4814014A1, “BINDING MOLECULE AND ANTIBODY-DRUG CONJUGATE AND USE THEREOF” (priority 2023, dated 2025).

Experiments:
human cMet on cells = biological target: T1, human cMet on cells (human, UniProt P08581); test: FACS on EBC-1 cells
T1 construct: whole, on cells; Cell lines: CHO-S-cMet, CHOK1-hucMet, EBC-1, MKN45, NCI-H1975; the cell line is named under assay; also called CHO-S-cMet; CHOK1-hucMet

EBC-1 CDX = test: In vivo efficacy, EBC-1 CDX model; design: species or system BALB/c nu/nu mice
NCI-H1975 CDX = test: In vivo efficacy, NCI-H1975 CDX model; design: species or system BALB/c nu/nu mice
MDA-MB-468 CDX = test: In vivo efficacy, MDA-MB-468 CDX model; design: species or system BALB/c nu/nu mice; conditions: day 42 after administration
NCI-H1975 [1] = test: FACS binding of ADCs to NCI-H1975; format: cell-based, human; conditions: ADC, 200 nM or 40 nM, 5-fold diluted; FIG. 17
[2] = tested on: NCI-H441 (lung adenocarcinoma cells) CDX; test: In vivo efficacy, NCI-H441 CDX model; design: species or system BALB/c nu/nu mice; conditions: day 45 after administration
NCI-H1975 [3] = test: Cell killing assay of ADCs (CCK8), NCI-H1975; format: cell-based, human; conditions: Table 10B; Target cell: NCI-H1975
MDA-MB-468 = test: FACS binding of ADCs to MDA-MB-468; format: cell-based; conditions: ADC, 200 nM or 40 nM, 5-fold diluted; FIG. 17
EBC-1 = test: Cell killing assay of ADCs (CCK8), EBC-1; format: cell-based, human; conditions: Table 10B; Target cell: EBC-1
CDX models = test: In vivo efficacy of ADCs in CDX mouse models (overall); design: species or system BALB/c nu/nu mice; conditions: single i.v. dose
SW48 CDX = test: In vivo efficacy, SW48 CDX model; design: species or system BALB/c nu/nu mice; conditions: at the same dose; versus AZD9592 and ABBV399
FADU CDX = test: In vivo efficacy, FADU CDX model; design: species or system BALB/c nu/nu mice; conditions: at the same dose; versus AZD9592 and ABBV399

Chain of human cMet on cells (P08581 25-1390): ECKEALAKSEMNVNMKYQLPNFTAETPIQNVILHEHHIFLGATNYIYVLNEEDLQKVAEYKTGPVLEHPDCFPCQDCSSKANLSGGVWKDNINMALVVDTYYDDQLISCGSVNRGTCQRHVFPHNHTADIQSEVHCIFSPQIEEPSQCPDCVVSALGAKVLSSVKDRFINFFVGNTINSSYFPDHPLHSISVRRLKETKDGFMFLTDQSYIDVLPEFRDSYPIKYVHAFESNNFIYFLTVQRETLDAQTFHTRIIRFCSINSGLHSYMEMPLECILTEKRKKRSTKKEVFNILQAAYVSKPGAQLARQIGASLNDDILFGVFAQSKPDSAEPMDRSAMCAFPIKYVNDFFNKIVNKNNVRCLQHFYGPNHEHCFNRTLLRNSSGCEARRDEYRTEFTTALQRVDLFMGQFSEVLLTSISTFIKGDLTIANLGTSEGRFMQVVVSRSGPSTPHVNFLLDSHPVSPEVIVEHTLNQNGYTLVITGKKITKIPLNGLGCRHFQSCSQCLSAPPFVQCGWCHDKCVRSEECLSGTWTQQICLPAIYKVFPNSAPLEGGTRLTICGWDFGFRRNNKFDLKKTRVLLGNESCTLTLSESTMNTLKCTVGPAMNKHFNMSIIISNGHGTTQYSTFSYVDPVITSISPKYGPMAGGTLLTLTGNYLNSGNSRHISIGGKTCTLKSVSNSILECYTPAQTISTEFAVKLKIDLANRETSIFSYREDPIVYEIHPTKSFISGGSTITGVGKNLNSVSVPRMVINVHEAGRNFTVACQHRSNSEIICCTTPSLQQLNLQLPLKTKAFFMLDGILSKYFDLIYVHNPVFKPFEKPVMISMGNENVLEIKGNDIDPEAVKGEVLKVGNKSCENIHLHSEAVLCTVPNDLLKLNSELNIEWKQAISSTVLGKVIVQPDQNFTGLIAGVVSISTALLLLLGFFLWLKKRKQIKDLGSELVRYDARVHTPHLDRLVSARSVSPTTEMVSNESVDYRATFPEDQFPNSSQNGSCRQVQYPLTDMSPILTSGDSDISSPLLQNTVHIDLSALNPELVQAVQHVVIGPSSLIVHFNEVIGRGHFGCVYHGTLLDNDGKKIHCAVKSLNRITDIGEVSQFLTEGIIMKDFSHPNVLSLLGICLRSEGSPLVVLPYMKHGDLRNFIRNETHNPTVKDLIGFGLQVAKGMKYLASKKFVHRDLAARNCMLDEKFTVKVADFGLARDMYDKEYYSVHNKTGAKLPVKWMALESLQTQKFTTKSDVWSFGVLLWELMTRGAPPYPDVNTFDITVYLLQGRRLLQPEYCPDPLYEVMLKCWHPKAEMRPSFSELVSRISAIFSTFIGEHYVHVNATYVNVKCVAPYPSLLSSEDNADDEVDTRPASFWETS

B1: anti-cMet monoepitopic M-3 molecule (Fc fusion)
chain: EVQLVESGGGLIQAGGSLRLSCTASGNIFSSYHMGWFRQAPGKQREFIAYITTREITNYADSVKGRFTISRDNSKNTVYLQMNNLRSEDTAVYYCIADQSREIRRSWGQGTLVTVSS[human IgG1 Fc with changes not printed]
notes: Symmetrical double-chain form
Human cMet on cells
  binding result: binds

B2: V-23-Fc-VA-Exd (bispecific antibody)
chain 1: EVQLLESGGGLVQPGGSLRLSCAASGLTFSYYAMAWFRQAPGKEREFVAAINWNQGNTYNTDSVKGRFTISRDNSKNTVYLQMNSLTPEDTAVYYCAVRYNQASYLVARSSDYNYWGQGTLVTVSS[human IgG1 Fc with changes not printed]
chain 2: QSQLVESGGGLVKPGGSLRLSCVASGFTISRSIMSWYRQAPGKERDWVASIGSAGNTNYVDSVKGRFTISRDNAKNSLYLQMNSLRAEDTAVYYCKTTLAVSFSEYWGQGTLVTVSSGGGGSGGGGSEVQLVESGGGLVQPGGSLRLSCTASGNIFSSYHMGWFRQAPGKQREFIAYITTREITNYADSVKGRFTISRDNSKNTLYLQMNSLRAEDTAVYYCIADQSREIRRSWGQGTLVTVSS[human IgG1 Fc with changes not printed]
modifications: Mal-PEG8-VA-PAB-Exatecan on cysteine, average DAR 4.0 for the whole molecule; positions not given
EBC-1 CDX; day 54 after administration, at a lower dose
  efficacy versus AZD9592: better efficacy than AZD9592
EBC-1 CDX; day 54 after administration, high-dose
  tumor elimination: complete tumor elimination
NCI-H1975 CDX; day 29 after administration, 2 mg/kg
  tumor inhibition effect: comparable to that of 4 mg/kg AZD9592
NCI-H1975 CDX; day 29 after administration, at the same dose
  efficacy versus AZD9592: better efficacy than AZD9592
MDA-MB-468 CDX; 2 mg/kg
  tumor volume change rate: -72%
MDA-MB-468 CDX; 4 mg/kg and 8 mg/kg
  tumor elimination: completely eliminated
NCI-H1975 [1]
  binding to NCI-H1975 cells: able to bind
[2]; 2 mg/kg
  tumor inhibition effect: comparable to that of 8 mg/kg AZD9592
[2]; at the same dose
  efficacy versus AZD9592: better efficacy than AZD9592
NCI-H1975 [3]
  IC50: 25.3 nM
MDA-MB-468
  binding to MDA-MB-468 cells: able to bind
EBC-1
  IC50: 0.138 nM
CDX models; EBC-1, NCI-H1975, NCI-H441 and MDA-MB-468 CDX models, FIG. 22
  in vivo tumor inhibition effect: better in vivo tumor inhibition effect than that of the positive control drug AZD9592

B3: V-23-Fc-Gluc-Exd (bispecific antibody)
chain 1: EVQLLESGGGLVQPGGSLRLSCAASGLTFSYYAMAWFRQAPGKEREFVAAINWNQGNTYNTDSVKGRFTISRDNSKNTVYLQMNSLTPEDTAVYYCAVRYNQASYLVARSSDYNYWGQGTLVTVSS[human IgG1 Fc with changes not printed]
chain 2: QSQLVESGGGLVKPGGSLRLSCVASGFTISRSIMSWYRQAPGKERDWVASIGSAGNTNYVDSVKGRFTISRDNAKNSLYLQMNSLRAEDTAVYYCKTTLAVSFSEYWGQGTLVTVSSGGGGSGGGGSEVQLVESGGGLVQPGGSLRLSCTASGNIFSSYHMGWFRQAPGKQREFIAYITTREITNYADSVKGRFTISRDNSKNTLYLQMNSLRAEDTAVYYCIADQSREIRRSWGQGTLVTVSS[human IgG1 Fc with changes not printed]
modifications: Mal-Gly-Exatecan-D-glucuronic acid on cysteine, average DAR 4.0 for the whole molecule; positions not given
notes: also called V-23-Fc-Glu-Exd
EBC-1 CDX; day 36 after administration, 3 mg/kg
  tumor elimination: completely eliminated
EBC-1 CDX; day 36 after administration, low dose (1 mg/kg)
  efficacy versus AZD9592: better efficacy than AZD9592
SW48 CDX
  efficacy versus positive control drugs: better efficacy than the positive control drugs
NCI-H1975 CDX; at the same dose, versus AZD9592 and ABBV399
  efficacy versus positive control drugs: better efficacy than the positive control drugs
NCI-H1975 [1]
  binding to NCI-H1975 cells: able to bind
NCI-H1975 [3]
  IC50: 34 nM
FADU CDX
  efficacy versus positive control drugs: better efficacy than the positive control drugs
MDA-MB-468
  binding to MDA-MB-468 cells: able to bind
EBC-1
  IC50: 0.129 nM
CDX models; SW48, FADU, EBC-1 and NCI-H1975 CDX models, FIG. 23
  in vivo tumor inhibition effect: better in vivo tumor inhibition effect than the positive control drug
